Values joined by “and” are separate entries in the source; they are usually repeats but may differ in a detail not shown here. Identical values can stand only once. Screen size: about 130,000 compounds; about 550 (0.42%) were called active. The inconclusive results got no clear call from the source; some entries with a clear call stand among them for comparison. Calls come from the whole dose curve; as a rule, active = well fitted inhibition curve with a large enough effect; inconclusive = small, poorly fitted or top-dose-only effect, or effect the other way; inactive = flat fitted curve, though single readings scatter. Potencies of inconclusive entries are doubtful fits and often do not repeat.
Test: qHTS Assay for Inhibitors of the ERK Signaling Pathway using a Homogeneous Screening Assay; Stimulation with EGF; note: nearly all actives have a fitted effect of over 55% in size;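 for activity change, negative = inhibition: plate controls were stimulated vehicle wells for no effect and unstimulated vehicle basal for full effect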
Settings: HEK293-V1b, EGF-stimulated phospho-ERK AlphaScreen; activity change, negative = inhibition: at the top concentration
In short: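 Homogeneous cell-based phospho-ERK assay: HEK293/V1b cells in 1% FBS, compound 30 min then EGF 5 min, AlphaScreen luminescence. Activity normalized between DMSO and 25 nM EGF controls; AC50 from Hill modelling.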
For `Oc1ccc(/C=N/NC(=S)N/N=C/c2ccc(O)cc2)cc1`, the “activity change, negative = inhibition” value was inactive: 28.3%. With `Cc1c(NC(=S)NC(=O)c2ccc(-c3ccc(Cl)cc3)o2)cccc1C(=O)O` the Potency was inconclusive: 39.8 µM [inhibitor, single point]. For `CN1CCN(c2nc3c(c(=O)n(C)c(=O)n3C)n2CCSc2nc3ccccc3s2)CC1`, the “activity change, negative = inhibition” value was inactive: -7.11% [at 57.5 µM]. With `O=C(N/N=C/c1cc2c3c(c1O)CCCN3CCC2)c1ccccc1O` the Potency was inconclusive: 17.8 µM [inhibitor, partial curve]. In the case of `C=C1/C(=C\C=C2/CCC[C@]3(C)[C@@H]([C@H](C)CCCC(C)(C)O)CC[C@@H]23)C[C@@H](O)C[C@@H]1O`, the Potency is reported as inconclusive: 25.1 µM [inhibitor, partial curve]. For `COc1cc2ncnc(NCc3ccc(Cl)cc3)c2cc1OC`, the Potency was active: 2.24 µM. With `CCN(CC)S(=O)(=O)c1ccc2c(c1)N(CC(=O)NCc1ccccn1)C(=O)CO2` the “activity change, negative = inhibition” value was inactive: 11% [at 57.5 µM]. With `CCOC(=O)C1(CC2CC2)CCN(C(=O)c2cc(OC)nc3ccccc23)CC1` the Potency was inconclusive: 10 µM [inhibitor, partial curve]. In the case of `Fc1ccc(NC(=S)Nc2ccc(Br)cc2)cc1`, the Potency is reported as inconclusive: 20 µM [inhibitor, partial curve]. In the case of `CC1(C)N=c2ccc([N+](=O)[O-])c(N)c2=[N+]1[O-]`, the Potency is reported as inconclusive: 11.2 µM [inhibitor, partial curve, poor fit]. In the case of `Fc1ccccc1-c1ccc(/C=N/Nc2nc3ccccc3[nH]2)o1`, the Potency is reported as inconclusive: 35.5 µM [inhibitor, single point]. With `COc1cccc(-c2nc(NCC3CCCO3)c3ccccc3n2)c1O` (configuration not stated) the Potency was inconclusive: 20 µM [inhibitor, partial curve]. In the case of `CN(c1ccc(O)cc1)c1nc(-c2ccccc2)cs1`, the Potency is reported as inconclusive: 22.4 µM [inhibitor, single point]. With `Cc1cccc(-n2c(C)cc(/C=C3\C(=N)N4N=C(CC(C)C)SC4=NC3=O)c2C)c1` the “activity change, negative = inhibition” value was inactive: 0.773%. With `Cc1cccc(NC2=C(NCCO)C(=O)c3ccccc3C2=O)c1` the Potency was inconclusive: 25.1 µM [inhibitor, partial curve]. For `COc1ccccc1CNC(=S)NCCc1ccccc1`, the “activity change, negative = inhibition” value was inactive: 3.33%. For `O=C1C=C(O)c2c(O)cccc2C1=O`, the “activity change, negative = inhibition” value was inactive: -7.53% [at 57.5 µM]. With `COc1cccc([C@@H]2Oc3ccc(OC)cc3C(=O)[C@H]2OC(=O)Nc2ccc(OC(F)F)cc2)c1` the “activity change, negative = inhibition” value was inactive: -1.04%. For `CN(C)C(=O)NC(Nc1cccc([N+](=O)[O-])c1)C(Cl)(Cl)Cl` (configuration not stated), the Potency was inconclusive: 10 µM [inhibitor, partial curve, poor fit]. With `O=C(CS(=O)(=O)c1ccccc1)Nc1nc(-c2ccc(F)cc2)cs1` the Potency was inconclusive: 39.8 µM [inhibitor, single point]. In the case of `CN1CCN(/N=C/c2ccc(-c3ccc([N+](=O)[O-])cc3Cl)o2)CC1`, the Potency is reported as inconclusive: 20 µM [inhibitor, partial curve]. In the case of `CC(C)=CCc1c(O)cc2oc3c(CC=C(C)C)c(O)c(O)c(CC=C(C)C)c3c(=O)c2c1O`, the Potency is reported as inconclusive: 14.1 µM [inhibitor, partial curve]. For `Cc1cccnc1NC(=S)NCCc1ccccc1`, the Potency was inconclusive: 39.8 µM [inhibitor, single point]. In the case of `CC(=O)N1CCC2(CCN(Cc3cc(C(F)(F)F)cc(C(F)(F)F)c3)CC2)CC1`, the “activity change, negative = inhibition” value is reported as inactive: 2.38%. For `Cn1cc(C2=C(c3ccc(Cl)cc3Cl)C(=O)NC2=O)c2ccccc21`, the Potency was “inactive and inconclusive: 39.8 µM [inhibitor, single point]”. For `CCn1c(O)c(N=NC(=S)NCC2CCCO2)c2ccccc21` (configuration not stated), the Potency was inconclusive: 31.6 µM [inhibitor, single point]. For `NC(=S)n1[nH]c(-c2ccc([N+](=O)[O-])cc2)c(N=Nc2cccc([N+](=O)[O-])c2)c1=O`, the Potency was inconclusive: 12.6 µM [inhibitor, partial curve]. For `CCOc1ccc(OCc2cccc(C(=O)Nc3ccc(CN4CCCCC4)cc3)c2)cc1`, the Potency was inconclusive: 39.8 µM [inhibitor, single point]. For `O=C(CSc1nc(-c2ccccc2)cs1)Nc1cccc([N+](=O)[O-])c1`, the Potency was inconclusive: 0.794 µM [activator, full curve, poor fit]. With `COC(=O)CC1=NN(c2ccc(OC)cc2)C(=O)C1` the “activity change, negative = inhibition” value was inactive: 3.6%. In the case of `Nc1ncnc2c1ncn2[C@@H]1O[C@H](C(=O)NC2CC2)[C@H](O)[C@H]1O`, the “activity change, negative = inhibition” value is reported as inactive: -5.29%. With `CCOc1ccc(C(C)=O)cc1COC(=O)c1cnc(Cl)c(Cl)c1` the Potency was inconclusive: 39.8 µM [inhibitor, single point]. With `Cc1ccc(SCCNC(=O)/C=C/c2ccc([N+](=O)[O-])cc2)cc1` the Potency was inconclusive: 0.891 µM [inhibitor, full curve, poor fit]. In the case of `O=C(CCn1cnc2ccccc2c1=O)Nc1nc(-c2ccc(Br)cc2)cs1`, the “activity change, negative = inhibition” value is reported as inactive: 6.61%. For `S=C(NNc1ccnc2cc(Cl)ccc12)Nc1ccc(Cl)cc1Cl`, the Potency was inconclusive: 20 µM [inhibitor, single point]. With `O=C1C=CC(=O)c2c1ccc1c2ccc2ccccc21` the “activity change, negative = inhibition” value was inactive: -11% [at 25.7 µM]. For `CN(C)c1ccc(C(CNC(=O)c2ccccc2)c2c[nH]c3ccccc23)cc1` (configuration not stated), the Potency was inconclusive: 15.8 µM [inhibitor, partial curve]. In the case of `CCCn1c(-c2ccc(F)cc2)nc2c(NCCN3CCCC3)nc(C)nc21`, the “activity change, negative = inhibition” value is reported as inactive: -2.82%. For `Cc1ccc2sc(NNC(=O)c3ccc4c(c3)OCCO4)nc2c1C`, the Potency was inconclusive: 11.2 µM [inhibitor, partial curve]. With `COCCn1c(=O)c(-c2cc(F)cc(F)c2)nc2cnc(Oc3cccc(Cl)c3)nc21` the “activity change, negative = inhibition” value was inactive: -17.1%. With `COc1cccc(N2C(C(C)=O)=NN(c3ccccc3)C2c2ccc(N3CCOCC3)cc2)c1` (configuration not stated) the Potency was inconclusive: 28.2 µM [activator, partial curve, poor fit]. With `Cn1c(=O)c(C(=O)COC(=O)c2cc(C(F)(F)F)nc3c(C(F)(F)F)cccc23)c(N)n(Cc2ccccc2)c1=O` the “activity change, negative = inhibition” value was inactive: 0.0307%. With `O=C(NNC1CC(=O)N(c2ccccc2)C1=O)c1cccnc1` (configuration not stated) the Potency was inconclusive: 7.94 µM [inhibitor, full curve, poor fit]. With `COc1ccc(/C=N/Nc2nc(-c3cccnc3)nc3ccccc23)c(OC)c1` the Potency was inconclusive: 2.82 µM [inhibitor, full curve, poor fit]. For `Cn1nc(-c2ccc(Cl)cc2)nc2c(=O)n(C)c(=O)nc1-2`, the Potency was inconclusive: 6.31 µM [inhibitor, single point]. For `C(=C\c1nnc2c3ccccc3ncn12)/c1ccccc1`, the Potency was inconclusive: 39.8 µM [inhibitor, single point]. In the case of `COc1ccc(N/N=C(\C#N)C(=N)SCc2ccccc2)cc1`, the Potency is reported as inconclusive: 39.8 µM [inhibitor, single point]. In the case of `CSC(=S)N/N=C/c1ccccc1`, the “activity change, negative = inhibition” value is reported as inactive: 4.76%. In the case of `COc1cc(NC(=O)c2cc3ccccc3cc2O)c(OC)cc1Cl`, the Potency is reported as inconclusive: 39.8 µM [inhibitor, single point]. In the case of `CCOc1ccccc1CN1CCN(Cc2[nH]c3ccccc3c2C)CC1CCO` (configuration not stated), the Potency is reported as inconclusive: 3.16 µM [activator, partial curve]. For `Cc1nn(-c2ccccc2)c(=S)c2ccccc12`, the Potency was inconclusive: 12.6 µM [inhibitor, partial curve]. In the case of `Cc1cc(NCc2ccccn2)n2nc(C)c(-c3ccc(Cl)cc3)c2n1`, the Potency is reported as inconclusive: 22.4 µM [inhibitor, single point]. In the case of `Cc1cc(C)c2nc(-c3ccccn3)cc(C(=O)Nc3ccc(S(=O)(=O)Nc4onc(C)c4C)cc3)c2c1`, the Potency is reported as inconclusive: 35.5 µM [inhibitor, single point]. With `CCOc1cc(CC(=O)N[C@@H](CC(C)C)c2ccccc2N2CCCCC2)ccc1C(=O)O` the Potency was inconclusive: 6.31 µM [inhibitor, single point]. For `CCOc1ccc(N2C(=O)Nc3ccccc3C2(O)C(=O)NCc2ccc(F)cc2)cc1` (configuration not stated), the “activity change, negative = inhibition” value was inactive: 2.55%. For `CC(C)n1c2ccccc2c2nnc(SCC(=O)Nc3ccccc3C(=O)O)nc21`, the Potency was inconclusive: 1.58 µM [activator, full curve, poor fit]. For `CCOC(=O)c1ccc(NC(=S)NCCC2=CCCCC2)cc1`, the “activity change, negative = inhibition” value was inactive: -0.523%. In the case of `CCOc1cccc(/C=C/c2ccc3ccccc3n2)c1OC(C)=O`, the Potency is reported as inconclusive: 31.6 µM [inhibitor, partial curve]. In the case of `COc1cccc(C(=O)NCCSc2c(C)[nH]c3ccccc23)c1OC`, the Potency is reported as inconclusive: 22.4 µM [inhibitor, single point]. With `O=C(NC1CCCC1)C(=O)N(c1ccccc1F)C(C(=O)NCC1CCCO1)c1cccs1` (configuration not stated) the Potency was inconclusive: 39.8 µM [inhibitor, single point]. In the case of `C=CCSC1=C(C#N)C(c2ccccc2Cl)C(C(=O)c2cccs2)C(O)(C(F)(F)F)N1` (configuration not stated), the Potency is reported as inconclusive: 39.8 µM [inhibitor, single point]. In the case of `O=C1c2ccccc2C(Nc2ccc3c(c2)OCO3)N1Cc1ccc2c(c1)OCO2` (configuration not stated), the Potency is reported as inconclusive: 20 µM [inhibitor, single point]. For `COc1ccc(/C=C(\NC(=O)c2ccccc2)C(=O)NNC(=O)CCN2CCOCC2)cc1`, the Potency was inconclusive: 6.31 µM [inhibitor, single point]. For `COc1cc(/C=C/c2cc(C(=O)O)c3ccccc3n2)cc(OC)c1O`, the Potency was active: 31.6 µM. With `C/C(=N\Nc1ncc(Cl)cc1Cl)c1ccc(S(=O)(=O)NCc2ccco2)cc1` the Potency was inconclusive: 35.5 µM [inhibitor, partial curve, poor fit]. In the case of `CC(C)=CC1C(CO)C1(C)C` (configuration not stated), the “activity change, negative = inhibition” value is reported as inactive: 20.2%. For `N#Cc1cc(Br)ccc1N=C1CCCN1c1ccccc1`, the Potency was inconclusive: 31.6 µM [activator, single point].

Source: PubChem BioAssay AID1454 (National Center for Advancing Translational Sciences (NCATS), 2008)
Potency is the fitted concentration of half-maximal effect; tags give direction and shape of the fitted curve.
